Results taken from the supplement of paper PMC12217912.
The other results are listed elsewhere or left out. Sequences were assembled here from the parent chain. Values near 0.05 are background.

B1: TEV protease; numbered along this chain (parent)
chain: MGESLFKGPRDYNPISSSICHLTNESDGHTTSLYGIGFGPFIITNKHLFRRNNGTLVVQSLHGVFKVKDTTTLQQHLVDGRDMIIIRMPKDFPPFPQKLKFREPQREERICLVTTNFQTKSMSSMVSDTSCTFPSGDGIFWKHWIQTKDGQCGSPLVSTRDGFIVGIHSASNFTNTNNYFTSVPKNFMELLTNQEAQQWVSGWRLNADSVLWGGHKVFMVKPEEPFQPVKEATQL

Variants of: B1
Experiment: raw area under fraction-flipped curve 0-4 h after induction (AUC4h, not background-subtracted), DNA-recorder readout of cleavage of the substrate (dimensionless); higher = more cleavage of the substrate by the protease variant
Settings: temperature: 34 °C; time window: 0-4 h after rhamnose induction
Description: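 In vivo DNA recorder in E. coli TOP10(DE3) ΔrhaA at 34 °C. Each TEVp single-site mutant (parent TEVp 0) is paired with a single-site variant of the 7-mer TEVs (canonical ENLYFQ|S). The substrate sits between flexible linkers in a Bxb1-sfGFP-TEVs-SsrA fusion, so cleavage stabilises Bxb1 and speeds flipping of a recombination array, read by NGS. The value is the raw area under the fraction-flipped curve over 0-4 h after rhamnose induction (AUC4h), with ≥20 reads per time point. It is not background-subtracted; inactive controls average about 0.047.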
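Note: Bxb1 expression induced with 0.2% (w/v) L-rhamnose at OD600 near 0.5, cultures sampled hourly, flipped fraction per protease–substrate barcode pair counted by paired-end Illumina sequencing.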

Variant	area with substrate ENAYFQS	area with substrate ENCYFQS	area with substrate ENDYFQS	area with substrate ENEYFQS	area with substrate ENFYFQS	area with substrate ENGYFQS	area with substrate ENHYFQS	area with substrate ENIYFQS	area with substrate ENKYFQS	area with substrate ENMYFQS	area with substrate ENNYFQS	area with substrate ENPYFQS	area with substrate ENQYFQS	area with substrate ENRYFQS	area with substrate ENSYFQS	area with substrate ENTYFQS	area with substrate ENVYFQS	area with substrate ENWYFQS	area with substrate ENYYFQS
I19H	0.0409	0.0535	0.0552	0.0456	0.0456	0.049	0.0609	0.117	0.0628	0.0572	0.0629	0.0565	0.06	0.0493	0.0567	0.0486	0.0553	0.0425	–
P14W	0.06	0.0697	0.0594	0.0557	0.0547	0.0716	0.0671	–	0.0598	–	0.0662	0.0452	0.0556	0.0481	0.0585	0.078	–	0.0528	–
P14C	0.0649	0.0631	0.0652	0.0625	0.0565	0.0593	0.0689	0.178	0.0621	0.0812	0.0578	0.0538	0.0669	0.0497	0.0586	0.0667	0.0769	0.064	0.0658
S17D	0.064	0.0554	0.0569	0.0569	0.079	0.0603	0.0594	0.113	0.0699	0.0862	0.058	0.0697	0.0617	0.0635	0.0626	0.0635	0.0933	0.0656	–
S17F	0.0611	0.062	0.0594	0.0561	–	0.0602	0.0604	0.104	0.0575	–	0.0547	0.054	0.0562	0.0602	0.083	–	0.0698	0.0043	0.0639
S17Q	0.0683	0.0655	0.0606	0.0588	0.0645	0.0524	0.0386	0.11	0	–	0.0704	0.0433	0.0569	0.038	–	0.0622	0.0761	–	0.0735
I15S	0.0814	–	0.0579	0.0446	0.0726	0.0327	0.0571	–	0.0425	0.0644	0.0454	0.0974	0.0615	0.0251	0.053	0.0557	0.0898	–	0.0667
I15C	0.0459	0.0555	0.0446	0.0605	0.046	0.0544	0.0578	0.101	0.0595	0.0581	0.0552	0.0277	0.0532	0.0522	0.0562	0.0641	0.0785	0.0653	0.0742
T23R	0.0577	0.0649	0.0641	0.0641	–	0.0657	0.0621	0.101	–	–	0.0541	0.0635	0.0528	0.0523	0.06	0.0508	0.0834	–	0.0478
T23S	0.0841	0.065	0.0651	0.0657	0.0582	0.0807	0.0548	0.0971	–	–	0.0559	0.0701	0.059	0.0656	0.0633	0.0717	0.0681	0.0149	–
H21D	0.0654	0.064	0.111	0.0636	–	0.0378	0.0563	0.0701	0.0345	0.0628	0.0648	0.0636	0.0558	–	–	–	0.0591	0.0047	0.0647
H21Y	0.0634	0.0804	0.0552	0.0545	0.0512	–	–	–	0.097	–	0.0602	–	0.0522	–	0.066	–	0.0597	0.0534	–
H21W	0.0544	0.0766	0.0556	0.0546	0.064	0.0647	0.0628	0.0873	0.0396	0.0823	0.0594	–	–	0.0399	0.0614	0.0688	0.0773	–	–
H21N	0.0645	0.0682	0.0597	0.0642	–	0.0449	–	–	0.0624	0.0726	0.0596	0.0553	0.0676	0.0591	0.0608	–	0.0585	0.0477	0.0649
H21G	0.0899	0.0617	0.0595	0.0613	0.0619	0.059	–	0.0988	0.0628	–	0.063	0.0727	0.0371	0.0595	0.0601	0.0595	0.0727	0.0546	0.0578
S18K	0.0549	–	0.0557	0.0363	–	0.0556	–	0.0772	–	–	0.0648	0.0562	0.0584	0.0519	0.0562	0.0678	0.0494	0.0455	–
S18R	0.0427	0.0687	0.0496	0.0599	0.0553	0.0456	0.058	0.0839	0.0529	0.0728	0.0487	–	0.0622	0.0589	0.0689	0.0476	0.0611	0.0594	0.0518
C20R	0.051	0.0496	0.0463	0.0558	0.0507	0.0409	0.0594	–	0.0391	–	0.0506	0.0457	0.0628	0.0453	0.0621	0.0436	0.0489	–	0.0451
C20M	0.0648	0.0678	0.0517	0.0516	0.0563	0.0565	0.0503	0.0877	–	–	0.0579	–	0.0575	0.0545	0.0623	0.0588	0.0664	–	0.0534
L22W	0.0588	–	0.051	0.0398	0.0467	0.0424	–	–	0.055	–	0.0486	–	0.0511	0.0629	0.0559	0.0517	0.0582	–	0.0537
L22K	0.0434	0.0351	0.0477	0.0496	–	0.0567	0.0406	0.0543	–	0.0298	0.0534	–	0.0477	0.0465	0.0349	0.048	0.0463	0.0446	–
L22V	0.0646	0.0733	0.0711	0.0819	0.061	0.075	0.0816	0.083	0.0601	0.0843	0.0536	0.0532	0.0629	0.0573	0.0463	0.058	0.0489	0.0442	0.0535
